From PubChem BioAssay (Tox21)
Several values for one entry are separate records, joined by “and”; a condition that tells them apart may be missing. Equal values may be shown once. This list was built around the results that the source calls inconclusive (neither active nor inactive); the mix of calls is not that of the screen. For part of these data: Potencies beside an inconclusive call are fits to weak or partial responses and may not hold up. Activity calls are given as the source filed them. Unless noted, calls come from the whole dose curve; as a rule, active = well fitted curve in the direction sought with a large enough effect in the repeat runs; inconclusive = weak or mixed curves; inactive = no such curve, though single readings can be large; an effect the other way counts as inactive or inconclusive.

Experiments:
[1] = qHTS assay to identify small molecule antagonists of the estrogen receptor alpha (ER-alpha) signaling pathway using the BG1 cell line (AID 743080; calls by dose curve;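 note: BG1 cells stimulated with 17beta-estradiol alongside compound; % is set by controls: 0 for no effect and ±100 for the full control effect; nearly all actives have a fitted effect of over 25% in size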); details: BG1Luc4E2 ERE-luciferase antagonist mode, luminescence; activity change, negative = inhibition: at 70.3 µM (top of the series) unless noted
How it was run: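 After 5 days in phenol-red-free 10% charcoal-stripped FBS medium, BG1-Luc-4E2 cells were seeded, left 24 h at 37 C, co-treated with compounds and 17beta-estradiol for 21.5 h, then assayed for viability and luciferase.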

[2] = qHTS assay to identify small molecule antagonists of the TGF-beta/Smad signaling pathway (AID 1346924; active = well fitted inhibition curve with a large enough effect in the signal ratio in the repeat runs, not every such curve was filed as active; inconclusive = weak or mixed curves; the % refers to the signal ratio); details: SBE-bla HEK293T, TGF-beta/Smad reporter, beta-lactamase ratio; activity, negative = inhibition: at 76.8 µM (top of the series) unless noted
How it was run: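 SBE-bla HEK 293T cells were plated overnight, then received compound in DMSO plus TGF-beta1 (added as a 0.25 ng/mL solution) and were incubated 5 h at 37 C. Beta-lactamase reporter activity was read after 2 h at room temperature with LiveBLAzer B/G FRET substrate (ex 405, em 460/530 nm).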

[3] = Caspase-3/7 induction in CHO-K1 cells by small molecules, qHTS cell viability counter screen (AID 1346979); note: potency is the fitted concentration of half-maximal effect; nearly all actives have a fitted effect of over 35% in size
How it was run: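 Cells (CHO-K1, wild type) are plated at 1,500 per well and incubated 5hr. Test compounds in DMSO are then pinned in, followed by 16hr at 37C and 5% CO2. Viability is read by CellTiter-Fluor fluorescence after 1hr.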

[4] = qHTS RealTime-Glo MT Cell Viability Assay in HEK293 cells - 40 hour (AID 1224874); details: RealTime-Glo luminescence; max response: hits give low values; note: nearly all actives have a fitted effect of over 50% in size; note: potency is the fitted concentration of half-maximal effect
How it was run: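 Viable HEK293 cells reduce a cell-permeant prosubstrate; the product diffuses out and is consumed by NanoLuc in the medium to give light. Compounds went in after a 5 h incubation and plates were read over the treatment course.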

[5] = qHTS RealTime-Glo MT Cell Viability Assay in HEK293 cells - 24 hour (AID 1224886); note: nearly all actives have a fitted effect of over 50% in size; note: potency is the fitted concentration of half-maximal effect
How it was run: (§1)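 Assay medium contained NanoLuc luciferase plus cell-permeant prosubstrate, added with HEK293 cells at 600 cells/well. After 5 h at 37 C/5% CO2 compounds were added; plates stayed at 37 C for 40 h with serial luminescence reads.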

[6] = qHTS assay to identify small molecule antagonists of the estrogen related receptor signaling pathway with the pleiotropic PPARgamma coactivator (PGC) from Tox21 10K library - cell viability counter screen (AID 1224840; active = well fitted cell-killing curve with a large enough effect in the repeat runs, not every such curve was filed as active; inconclusive = weak or mixed curves, or effect the other way; inactive = no such curve, though single readings can be large or run the other way; note: nearly all actives have a fitted effect of over 40% in size; note: potency is the fitted concentration of half-maximal effect; for viability change, negative = cytotoxic: % is set by controls: 0 for no effect and ±100 for the full control effect)
How it was run: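 Following seeding of 2,000 PGC/ERR cells/well and 6 hours' incubation, test compounds were delivered in DMSO. The plates then sat 17.5 hours at 37 C before a fluorogenic live-cell protease reagent (CellTiter-Fluor) was read after 30 min.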

[7] = qHTS RealTime-Glo MT Cell Viability Assay in HEK293 cells - 16 hour (AID 1224872); note: nearly all actives have a fitted effect of over 50% in size; note: potency is the fitted concentration of half-maximal effect
How it was run: as §1

[8] = target: Thyrotropin receptor (Homo sapiens) (UniProt P16473); experiment: qHTS assay to identify small molecule antagonists of the thyroid stimulating hormone receptor (TSHR) signaling pathway (AID 1259385; calls by dose curve; note: nearly all actives have a fitted effect of over 20% in size; note: potency is the fitted concentration of half-maximal effect; for activity change, negative = inhibition: % is set by controls: 0 for no effect and ±100 for the full control effect); details: TSHR-HEK293 cAMP HTRF, TSH-stimulated antagonist mode; activity change, negative = inhibition: at 92.4 µM (top of the series) unless noted
Sequence of UniProt P16473 (P16473 whole entry, looked up): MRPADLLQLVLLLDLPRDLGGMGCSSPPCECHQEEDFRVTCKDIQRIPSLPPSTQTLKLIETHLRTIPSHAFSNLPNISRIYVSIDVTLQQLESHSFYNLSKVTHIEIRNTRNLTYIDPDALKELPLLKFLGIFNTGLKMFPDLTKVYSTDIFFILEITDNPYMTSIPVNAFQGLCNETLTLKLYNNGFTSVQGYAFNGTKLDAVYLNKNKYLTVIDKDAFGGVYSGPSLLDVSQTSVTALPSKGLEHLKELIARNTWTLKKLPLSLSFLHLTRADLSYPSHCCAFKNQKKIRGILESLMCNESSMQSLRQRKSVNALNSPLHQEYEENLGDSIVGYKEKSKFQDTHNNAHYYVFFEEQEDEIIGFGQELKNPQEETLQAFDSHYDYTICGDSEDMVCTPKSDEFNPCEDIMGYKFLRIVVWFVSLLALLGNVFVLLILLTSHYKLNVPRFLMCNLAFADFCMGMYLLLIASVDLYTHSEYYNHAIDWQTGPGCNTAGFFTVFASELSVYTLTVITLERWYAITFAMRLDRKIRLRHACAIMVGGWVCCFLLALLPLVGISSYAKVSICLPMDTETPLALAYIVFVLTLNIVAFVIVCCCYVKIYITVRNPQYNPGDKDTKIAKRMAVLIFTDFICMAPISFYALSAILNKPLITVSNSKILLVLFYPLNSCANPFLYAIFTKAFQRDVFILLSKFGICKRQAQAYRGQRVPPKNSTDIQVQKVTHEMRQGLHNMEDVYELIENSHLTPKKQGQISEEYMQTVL
How it was run: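 TSHR-HEK293 cells were plated and held 18 h at 37C/5% CO2, then given compound plus Ro20-1724 and stimulated with TSH at 1.5 ng/mL final. After 30 min at room temperature, cAMP was detected with cAMP-d2/anti-cAMP-cryptate (1 h) by fluorescence.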

[9] = target: Nuclear receptor subfamily 1 group I member 2 (Homo sapiens) (UniProt O75469); experiment: Human pregnane X receptor (PXR) small molecule agonists, qHTS assay (AID 1346982); note: potency is the fitted concentration of half-maximal effect; nearly all actives have a fitted effect of over 35% in size
Sequence of UniProt O75469 (O75469 whole entry, looked up): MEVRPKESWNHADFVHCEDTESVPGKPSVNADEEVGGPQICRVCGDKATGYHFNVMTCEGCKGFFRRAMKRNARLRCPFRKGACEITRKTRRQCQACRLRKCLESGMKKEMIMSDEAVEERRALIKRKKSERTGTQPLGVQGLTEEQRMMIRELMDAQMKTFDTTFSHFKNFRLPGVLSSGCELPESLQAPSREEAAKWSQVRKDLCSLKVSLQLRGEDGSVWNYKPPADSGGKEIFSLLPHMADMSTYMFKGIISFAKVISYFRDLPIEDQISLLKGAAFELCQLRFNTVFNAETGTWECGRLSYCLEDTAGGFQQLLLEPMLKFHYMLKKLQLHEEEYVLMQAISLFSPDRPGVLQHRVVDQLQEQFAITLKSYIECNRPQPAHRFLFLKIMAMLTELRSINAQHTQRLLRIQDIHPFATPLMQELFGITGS
How it was run: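 Compound-induced hPXR transactivation of a CYP3A4 luciferase reporter was scored in HepG2 PXR-Luc cells over 24 hr at 37 C, 5% CO2, by luminescence.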

[10] = qHTS assay to identify small molecule antagonists of the androgen receptor (AR) signaling pathway using the MDA cell line - cell viability counter screen (AID 743041; note: potency is the fitted concentration of half-maximal effect; nearly all actives have a fitted effect of over 45% in size); details: MDA-kb2 viability, CellTiter-Fluor, 16 h, cells co-treated with R1881 androgen agonist; viability change, negative = cytotoxic: at 70.3 µM (top of the series)
How it was run: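 Viability counter screen run alongside the AR antagonist reporter: cells seeded 5 h before compound, R1881 added, 16 h incubation at 37C without CO2, fluorescent CellTiter-Fluor signal quantified.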

[11] = qHTS assay to identify small molecule antagonists of the estrogen receptor alpha (ER-alpha) signaling pathway using the BG1 cell line - cell viability counter screen (AID 743081); details: BG1Luc4E2 viability, CellTiter-Fluor, 22 h; activity change, negative = cytotoxicity: at 70.3 µM (top of the series) unless noted;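 note: compound given together with 17beta-estradiol as the ER stimulus; nearly all actives have a fitted effect of over 45% in size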; note: potency is the fitted concentration of half-maximal effect
[12] = qHTS assay to identify small molecule antagonists of the peroxisome proliferator-activated receptor gamma (PPARg) signaling pathway - cell viability counter screen (AID 743194); details: PPARg-bla HEK293H viability, CellTiter-Glo luminescence, 17 h, co-treated with 50 nM rosiglitazone; activity change, negative = cytotoxicity: at 62.6 µM (top of the series) unless noted; note: potency is the fitted concentration of half-maximal effect; nearly all actives have a fitted effect of over 55% in size
How it was run: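 PPARg-UAS-bla HEK293H cells were plated, rested 5 h at 37 C, then treated with compounds plus rosiglitazone (50 nM final) for 17 h at 37 C; viability was then read by CellTiter-Glo luminescence after 30 min at room temperature.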

[13] = target: Bile acid receptor (Homo sapiens) (UniProt Q96RI1); experiment: qHTS assay to identify small molecule antagonists of the farnesoid-X-receptor (FXR) signaling pathway (AID 743217; active = well fitted inhibition curve with a large enough effect in the signal ratio in the repeat runs, not every such curve was filed as active; inconclusive = weak or mixed curves, or effect the other way; inactive = no such curve, though single readings can be large or run the other way; the % refers to the signal ratio; note: potency is the fitted concentration of half-maximal effect; for activity change, negative = inhibition: % is set by controls: 0 for no effect and ±100 for the full control effect); details: HEK293T FXR-UAS-bla, beta-lactamase ratio, CDCA-stimulated, 16 h; activity change, negative = inhibition: at 62.6 µM (top of the series) unless noted
Sequence of UniProt Q96RI1 (Q96RI1 whole entry, looked up): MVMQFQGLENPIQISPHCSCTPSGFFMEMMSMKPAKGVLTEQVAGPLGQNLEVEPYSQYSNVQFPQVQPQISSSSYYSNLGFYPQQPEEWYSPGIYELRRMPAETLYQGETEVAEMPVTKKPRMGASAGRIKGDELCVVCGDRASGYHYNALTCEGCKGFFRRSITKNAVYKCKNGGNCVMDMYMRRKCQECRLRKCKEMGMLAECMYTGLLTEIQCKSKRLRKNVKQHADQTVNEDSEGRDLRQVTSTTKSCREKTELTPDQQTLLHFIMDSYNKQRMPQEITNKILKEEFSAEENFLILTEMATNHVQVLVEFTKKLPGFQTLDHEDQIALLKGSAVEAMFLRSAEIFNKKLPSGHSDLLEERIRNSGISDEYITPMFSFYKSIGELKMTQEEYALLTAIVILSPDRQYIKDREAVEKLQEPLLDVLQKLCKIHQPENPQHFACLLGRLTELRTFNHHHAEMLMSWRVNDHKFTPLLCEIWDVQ
How it was run: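 GeneBLAzer FXR-UAS-bla HEK 293T, CDCA-stimulated (50 uM final). Compound treatment 16 h, 37 °C. Detection: beta-lactamase cleavage of B/G FRET substrate, fluorescence.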

[14] = qHTS assay to identify small molecule antagonists of the vitamin D receptor (VDR) signaling pathway - cell viability counter screen (AID 743225); details: VDR-bla HEK293T viability, CellTiter-Glo luminescence, 16 h; viability change, negative = cytotoxic: at 61 µM (top of the series) unless noted; note: nearly all actives have a fitted effect of over 50% in size; note: potency is the fitted concentration of half-maximal effect
How it was run: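 Read-out: CellTiter-Glo luminescence measured 30 min after reagent addition at room temperature. Cells were VDR-bla HEK 293T exposed 16 h at 37C, 5% CO2, to compound with 3 nM final calcitriol agonist.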

[15] = target: Aryl hydrocarbon receptor (Homo sapiens) (UniProt P35869); experiment: qHTS assay to identify small molecule that activate the aryl hydrocarbon receptor (AhR) signaling pathway (AID 743085); note: nearly all actives have a fitted effect of over 15% in size; note: potency is the fitted concentration of half-maximal effect
Sequence of UniProt P35869 (P35869 whole entry, looked up): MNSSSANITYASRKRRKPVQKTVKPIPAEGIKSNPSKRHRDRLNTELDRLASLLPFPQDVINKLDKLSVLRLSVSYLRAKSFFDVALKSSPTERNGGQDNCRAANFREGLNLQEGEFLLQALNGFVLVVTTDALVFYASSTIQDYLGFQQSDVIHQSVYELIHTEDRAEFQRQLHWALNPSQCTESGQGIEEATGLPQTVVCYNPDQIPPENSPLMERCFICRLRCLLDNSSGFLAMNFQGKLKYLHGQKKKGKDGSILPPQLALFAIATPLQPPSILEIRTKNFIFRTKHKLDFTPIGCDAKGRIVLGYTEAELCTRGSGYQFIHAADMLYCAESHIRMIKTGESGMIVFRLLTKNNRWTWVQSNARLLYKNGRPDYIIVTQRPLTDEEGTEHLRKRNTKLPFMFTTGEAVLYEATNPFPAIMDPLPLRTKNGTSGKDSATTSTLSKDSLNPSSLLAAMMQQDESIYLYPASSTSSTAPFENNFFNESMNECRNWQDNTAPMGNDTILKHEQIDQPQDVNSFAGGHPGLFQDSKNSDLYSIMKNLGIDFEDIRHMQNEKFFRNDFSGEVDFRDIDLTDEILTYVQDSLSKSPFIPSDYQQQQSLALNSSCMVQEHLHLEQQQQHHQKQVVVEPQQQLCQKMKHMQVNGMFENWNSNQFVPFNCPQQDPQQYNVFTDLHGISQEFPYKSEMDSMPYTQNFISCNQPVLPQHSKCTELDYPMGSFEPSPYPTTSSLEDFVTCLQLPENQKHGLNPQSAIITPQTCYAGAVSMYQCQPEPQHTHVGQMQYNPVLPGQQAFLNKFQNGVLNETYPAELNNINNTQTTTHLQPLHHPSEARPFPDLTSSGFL
How it was run: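 Cell line HG2L7.5c1 (human hepatoma, 20× DRE-luc). Plated, 5 h 37C, compound/DMSO added, 24 h 37C. CellTiter-Fluor 30 min 37C → fluorescence; then ONE-Glo 30 min RT → luminescence.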

[16] = qHTS assay to identify small molecule agonists of the peroxisome proliferator-activated receptor delta (PPARd) signaling pathway - cell viability counter screen (AID 743211); details: PPARd-bla HEK293H viability, CellTiter-Glo luminescence, 17 h; activity change, negative = cytotoxicity: at 62.6 µM (top of the series) unless noted; note: nearly all actives have a fitted effect of over 55% in size; note: potency is the fitted concentration of half-maximal effect; for activity change, negative = cytotoxicity: % is set by controls: 0 for no effect and ±100 for the full control effect
How it was run: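 HEK293H PPARd-bla, 3000 cells/well; 5 h preincubation 37C/5% CO2; cpd in DMSO, 17 h 37C; B/G FRET substrate 2 h RT; CellTiter-Glo 30 min RT, luminescence.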

[17] = A CellTox Green Cytotoxicity Assay to monitor cytotoxicity in HepG2 cells - 40 hour (AID 1224879); note: potency is the fitted concentration of half-maximal effect; nearly all actives have a fitted effect of over 40% in size
How it was run: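 Using 1536-well format, dye-containing HepG2 suspension was seeded, allowed 5 h at 37 C/5% CO2, dosed by pintool with compounds, positive and negative controls, and imaged for fluorescence across 40 h.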

[18] = qHTS assay to identify small molecule antagonists of the glucocorticoid receptor (GR) signaling pathway - cell viability counter screen (AID 720693); details: GR-bla HeLa viability, CellTiter-Glo luminescence, 18 h, with 5 nM dexamethasone present; viability change, negative = cytotoxic: at 58.5 µM (top of the series); note: % is set by controls: 0 for no effect and ±100 for the full control effect; nearly all actives have a fitted effect of over 55% in size
[19] = qHTS assay to identify small molecule agonists of the vitamin D receptor (VDR) signaling pathway - cell viability counter screen (AID 743224)
How it was run: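 Plated VDR-bla cells (4 h, 37C) received compound, incubated 16 h, then LiveBLAzer substrate 2 h RT; CellTiter-Glo added afterwards, luminescence read at 30 min.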
Tags give direction and shape of the fitted curve or compound fluorescence and quenching.

CC(C)CCCC(C)CC=O (configuration not stated)
Potency [1]: inactive | activity, negative = inhibition [2]: inconclusive: 1.44% | Potency [3]: inconclusive: 77 µM [rising, partial curve, poor fit]

Clc1cc(Cl)c(-c2c(Cl)c(Cl)cc(Cl)c2Cl)cc1Cl
Potency [4]: inconclusive: 16.9 µM [rising, partial curve] | Potency [5]: inconclusive: 13.4 µM [rising, partial curve]

CCN(CC)c1ccc(C=O)cc1
Potency [6]: inactive | Potency [7]: inconclusive: 54.9 µM [cytotoxic, single point] | Potency [4]: inconclusive: 61.6 µM [cytotoxic, single point] | Potency [5]: inconclusive: 54.9 µM [cytotoxic, single point] | Potency [8]: inconclusive: 61.1 µM [falling, single point] | Potency [9]: inconclusive: 48.6 µM [activator, partial curve, poor fit]

O=S(=O)(O)c1ccc(N=Nc2c(O)ccc3cc(S(=O)(=O)O)ccc23)cc1
Potency [10]: active: 30.8 µM and active: 27.3 µM | Potency [11]: active: 27.4 µM and active: 27.3 µM | Potency [12]: inconclusive: 6.9 nM [rising, full curve, poor fit] | Potency [13]: inactive | Potency [14]: inconclusive: 22 µM [cytotoxic, single point] | Potency [6]: inconclusive: 54.7 µM [cytotoxic, partial curve] | Potency [7]: inconclusive: 22 µM [cytotoxic, partial curve, poor fit] and inconclusive: 24.5 µM [cytotoxic, partial curve] | Potency [4]: inconclusive: 24.5 µM [cytotoxic, partial curve] | Potency [5]: inconclusive: 21.9 µM [cytotoxic, partial curve] | Potency [8]: inconclusive: 48.6 µM [falling, partial curve] | activity change, negative = inhibition [8]: inconclusive: -9.68%

Nc1ccc([N+](=O)[O-])c(N)c1
Potency [10]: active: 59.6 µM | Potency [11]: inconclusive: 66.8 µM [cytotoxic, single point] | Potency [15]: inactive | Potency [16]: inactive | Potency [6]: inconclusive: 26.6 µM [cytotoxic, partial curve] | max response [4]: inactive: -10.3% | Potency [5]: inactive | Potency [9]: inconclusive: 59.6 µM [activator, partial curve]

Cc1cc(NC(=O)C2=C(O)c3ccccc3S(=O)(=O)N2C)no1
Potency [14]: inactive

OC1OCCOC1O (configuration not stated)
activity change, negative = inhibition [13]: inconclusive: 7.35%

CCCN(C1CCN(C(=O)C2CCNCC2)CC1)[C@@H]1CCc2ccc(OC)cc2C1
Potency [10]: inconclusive: 61.1 µM [cytotoxic, partial curve, poor fit] | Potency [11]: inconclusive: 2.73 µM [cytotoxic, full curve] | Potency [16]: inconclusive: 24.5 µM [cytotoxic, partial curve, poor fit] | Potency [14]: inconclusive: 49 µM [cytotoxic, partial curve, poor fit] | Potency [7]: inconclusive: 54.9 µM [cytotoxic, single point] | Potency [17]: inconclusive: 21.9 µM [activator, single point] | Potency [5]: inconclusive: 61.6 µM [cytotoxic, single point] | activity, negative = inhibition [2]: inconclusive: -3.78%

Cc1ncsc1CCO
Potency [18]: inactive | Potency [11]: inactive | Potency [12]: inconclusive: 38900 nM [cytotoxic, partial curve]

O=C(O)c1ccncc1
Potency [12]: inconclusive: 448 nM [rising, full curve, poor fit]

CCCC(C)C=O (configuration not stated)
Potency [7]: inactive | activity, negative = inhibition [2]: inconclusive: 0.389%

CC(CCO)CCCC(C)(C)O (configuration not stated)
Potency [13]: inconclusive: 61.6 µM [inhibitor, partial curve, poor fit] | Potency [3]: inconclusive: 68.6 µM [cytotoxic, single point]

C=C(C)C(=O)OCCOC(=O)CC(C)=O
Potency [14]: inconclusive: 0.195 µM [cytotoxic, single point] | Potency [6]: inactive | activity, negative = inhibition [2]: inconclusive: 0.32%

COC(=O)CCC(=O)O
Potency [19]: inactive

Nc1ccc(C(=O)NCC(=O)O)cc1
Potency [6]: inactive

CN(C)c1ccc(Cc2ccc(N(C)C)cc2)cc1
Potency [10]: inconclusive: 77.3 µM [cytotoxic, partial curve, poor fit] | Potency [15]: inconclusive: 30.8 µM [activator, partial curve] and inconclusive: 24.3 µM [activator, single point] | Potency [7]: inconclusive: 17.5 µM [cytotoxic, full curve] | Potency [3]: inconclusive: 61.4 µM [cytotoxic, partial curve] and inconclusive: 61.1 µM [cytotoxic, partial curve]
